Source: paper PMC6956818, “Activation of JNK and p38 MAPK Mediated by ZDHHC17 Drives Glioblastoma Multiforme Development and Malignant Progression” (Theranostics, 2020)
Results are given in words; binding and its absence hold for the method and conditions named. Binding seen in cells or lysates may run through a third protein. Some results given as binding are weak or reduced against the parent protein; the word gives no strength. Sequences can lack the tags named with a protein.

Sequences of proteins named here, by UniProt entry; tags and fusion partners are left off.
UniProt P45983: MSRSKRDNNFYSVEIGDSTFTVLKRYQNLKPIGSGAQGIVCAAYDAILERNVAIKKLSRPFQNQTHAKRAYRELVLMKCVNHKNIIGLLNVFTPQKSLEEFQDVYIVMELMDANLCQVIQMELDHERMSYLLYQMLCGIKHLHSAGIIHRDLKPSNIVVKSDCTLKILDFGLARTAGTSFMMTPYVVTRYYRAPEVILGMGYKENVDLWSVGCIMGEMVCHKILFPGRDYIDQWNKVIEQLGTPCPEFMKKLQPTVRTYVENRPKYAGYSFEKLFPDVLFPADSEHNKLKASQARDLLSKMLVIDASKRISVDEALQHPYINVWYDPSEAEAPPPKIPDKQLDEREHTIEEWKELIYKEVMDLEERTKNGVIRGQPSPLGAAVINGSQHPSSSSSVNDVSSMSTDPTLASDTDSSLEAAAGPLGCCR

Molecular target: GFP-JNK1 (UniProt P45983)
Assay: co-IP; GFP-JNK1 (or GFP-p38) and FLAG-MAP2K4 in HEK293 cells, with or without Myc-ZDHHC17; IP of JNK1 (or p38), MAP2K4 detected

binding: binds
B1: Flag-MAP2K4 (protein, UniProt P45985 1-399)
chain: MAAPSPSGGGGSGGGSGSGTPGPVGSPAPGHPAVSSMQGKRKALKLNFANPPFKSTARFTLNPNPTGVQNPHIERLRTHSIESSGKLKISPEQHWDFTAEDLKDLGEIGRGAYGSVNKMVHKPSGQIMAVKRIRSTVDEKEQKQLLMDLDVVMRSSDCPYIVQFYGALFREGDCWICMELMSTSFDKFYKYVYSVLDDVIPEEILGKITLATVKALNHLKENLKIIHRDIKPSNILLDRSGNIKLCDFGISGQLVDSIAKTRDAGCRPYMAPERIDPSASRQGYDVRSDVWSLGITLYELATGRFPYPKWNSVFDQLTQVVKGDPPQLSNSEEREFSPSFINFVNLCLTKDESKRPKYKELLKHPFILMYEERAVEVACYVCKILDQMPATPSSPMYVD
